Experimental data as given in PubChem BioAssay AID360 (National Center for Advancing Translational Sciences (NCATS), 2006).
Screen size: about 48,000 compounds; about 550 (1.1%) were called active. About 4% were inconclusive and are not listed. Cut-off read from the data, not from the text of the source: active = potency below about 15 µM; inconclusive = mostly about 16 µM to 33 µM; inactive = weaker than that. The list shows a part of the results.

target: Lysosomal acid glucosylceramidase (Homo sapiens) (UniProt P04062); experiment: Glucocerebrosidase; details: purified enzyme, resorufin glucoside fluorescence (screen aimed at inhibitors), 20 min;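 note: the screen sought inhibitors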
Sequence of UniProt P04062 (P04062 whole entry, looked up): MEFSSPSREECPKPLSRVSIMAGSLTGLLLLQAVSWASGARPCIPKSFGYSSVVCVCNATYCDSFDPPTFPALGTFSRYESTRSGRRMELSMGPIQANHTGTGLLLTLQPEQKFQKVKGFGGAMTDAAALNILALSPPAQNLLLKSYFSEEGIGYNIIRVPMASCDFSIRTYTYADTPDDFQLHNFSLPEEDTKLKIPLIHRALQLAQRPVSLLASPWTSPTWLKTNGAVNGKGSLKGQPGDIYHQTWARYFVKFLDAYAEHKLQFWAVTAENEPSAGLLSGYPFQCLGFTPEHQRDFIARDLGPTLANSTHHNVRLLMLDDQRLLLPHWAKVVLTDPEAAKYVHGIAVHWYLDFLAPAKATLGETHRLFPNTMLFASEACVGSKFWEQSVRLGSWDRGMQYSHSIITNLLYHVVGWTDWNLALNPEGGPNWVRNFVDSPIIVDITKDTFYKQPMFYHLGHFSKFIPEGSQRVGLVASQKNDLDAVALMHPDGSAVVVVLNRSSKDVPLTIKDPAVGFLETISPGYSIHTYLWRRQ
In short: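 Compounds titrated against 0.2 nM normal enzyme, 30 uM resorufin beta-D-glucopyranoside substrate, citrate/phosphate buffer with taurocholate and tween-20, pH 5.9. Reaction ran 20 min at room temperature; fluorescence (Ex 548/Em 600) gave AC50.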
Potency is the fitted concentration of half-maximal effect.

Potency, inactive:
CCOC(=O)c1c(C)[nH]c(C(=O)COC(=O)c2cnc(C)cn2)c1C > 76.9 µM
CCCCCn1c(CN2CCN(C(=O)OCC)CC2)nc2c1c(=O)n(C)c(=O)n2C > 76.9 µM
COC(=O)C1C(=O)C2=C(CC1C)NC(C)=C(C(=O)OC1CCCCC1)C2c1ccc(N(C)C)cc1 (stereo not given) > 76.9 µM
COC(=O)c1c(-c2cccs2)csc1NC(=O)c1cccnc1 > 76.9 µM
COc1ccccc1N1CCN(C(=O)c2cc(-c3cccc(Cl)c3)on2)CC1 > 76.9 µM
COc1ccccc1N1CCN(C(=O)c2ccc3c(=O)n(Cc4ccco4)c(=S)[nH]c3c2)CC1 > 76.9 µM
C[N+]1(CCOS(=O)C23CC4CC(CC(C4)C2)C3)CCOCC1 (stereo not given) > 76.9 µM
COc1ccccc1N1CCN(C(=O)c2cccc(N3C(=O)NC4CC3(C)Oc3ccccc34)c2)CC1 (stereo not given) > 76.9 µM
Cc1ccc(F)cc1NC(=O)c1cccc(N(C)C)c1 > 76.9 µM
COc1cccc(/C(O)=C2/C(=O)C(=O)N(c3cc(C)on3)C2c2cccs2)c1 (stereo not given) > 76.9 µM
COc1ccc(NC(=O)c2c(F)c(F)c(F)c(F)c2F)cc1Cl > 76.9 µM
CCOc1ccc(CCNC(=O)C2CCCN(C(=O)N(C)C)C2)cc1OCC (stereo not given) > 76.9 µM
Nc1nc(-c2ccco2)nn1C(=O)CCc1ccccc1 > 76.9 µM
CCOc1cc(S(=O)(=O)N2CCN(Cc3ccccc3)CC2)ccc1Br
CCOc1ccccc1NC(=O)CN(Cc1ccccc1)S(C)(=O)=O > 76.9 µM
CCOC(=O)N1CCN(C(=O)CSCC(=O)N=c2sc3cc(OC)ccc3n2C)CC1 > 76.9 µM
CCN(CC)S(=O)(=O)c1cccc(-c2nnc(SCc3nnc(-c4cccs4)o3)n2N)c1 > 76.9 µM
O=C(NCC1CCCCC1)c1ccco1 > 76.9 µM
C=CCn1c(SCC(=O)Nc2ccccc2OC)nnc1-c1ccco1 > 76.9 µM
COc1cccc(NC(=O)COc2ccc(N3CC(C(=O)NCC(C)C)CC3=O)cc2)c1 (stereo not given) > 76.9 µM
COCCCNC(=O)Cn1ncc2c(=O)oc3ccccc3c21 > 76.9 µM
CC(=O)c1cccc(NC(=O)N2CCCC2C(=O)Nc2cccc(C)c2)c1 (stereo not given) > 76.9 µM
COC(=O)c1ccc2c(=O)n(CCO)c(=S)[nH]c2c1
COc1ccc(CCN2CNc3c(c(=O)n(C)c(=O)n3C)C2)cc1 > 76.9 µM
CCCOC(=O)C1=C(C)NC2=C(C(=O)CCC2)C1c1ccc(N(C)C)cc1 (stereo not given) > 76.9 µM
CC1CCc2c(sc3nc(C4CC4)nc(SCC(=O)NCc4ccco4)c23)C1 (stereo not given) > 76.9 µM
C=CCn1c(Br)nc2c1c(=O)[nH]c(=O)n2C > 76.9 µM
Oc1ccc2ccccc2c1C=NCc1cn2ccsc2n1 > 76.9 µM
O=C(CCc1ccccc1)Nc1ncn[nH]1 > 76.9 µM
Cc1oc(-c2ccccc2F)nc1CSCC(=O)NCc1ccc2c(c1)OCO2 > 76.9 µM
CCOC(=O)c1cc2c(N)c(C(=O)c3cc(C#N)c(SC)nc3C)sc2nc1C > 76.9 µM
CCCc1[nH]nc2c1C(c1ccc(OC)c(CSC3=NCCS3)c1)C(C#N)=C(N)O2 (stereo not given) > 76.9 µM
CCN(CC(=O)NCc1cccs1)C(=O)c1cc(S(=O)(=O)N2CCOCC2)ccc1C > 76.9 µM
O=C(C(c1ccccc1)c1ccccc1)N(Cc1ccco1)C1CCS(=O)(=O)C1 (stereo not given) > 76.9 µM
Cc1cc(C)c2[nH]c(=O)c(CN(CC3CCCO3)S(=O)(=O)c3ccc4c(c3)OCCO4)cc2c1 (stereo not given) > 76.9 µM
Cc1nn(CC(=O)N2CCN(Cc3ccccc3)CC2)c(=O)c2ccccc12 > 76.9 µM
Cc1ccc(CNC(=O)CN2C(=O)C3(OCCCO3)c3ccccc32)cc1 > 76.9 µM
Cn1c(CCc2ccccc2)nnc1SCC(=O)N1CCCC1 > 76.9 µM
O=C(c1csc2c1CCCC2)N1CCN(c2ccccc2)CC1 > 76.9 µM
Cc1ccc(NC(=O)Cn2c(=O)n(CCCCC(=O)NCc3ccco3)c(=O)c3ccccc32)cc1 > 76.9 µM
CC(C)C(=O)NC(C)C(c1cccs1)N1CCN(C)CC1 (stereo not given) > 76.9 µM
CCCc1nc2ccccc2c2nc(N)nn12 > 76.9 µM
COc1ccc(CCNC(=O)CCN2C(=O)COc3ccc(C)cc32)cc1OC > 76.9 µM
CN(CCO)C(=O)CCC(=O)Nc1ccc(S(N)(=O)=O)cc1 > 76.9 µM
O=C(Nc1ccccc1C(=O)N1CCCCC1)C1CCCCC1 > 76.9 µM
Nc1cc(N)c(OCC(F)(F)F)cc1OCC(F)(F)F > 76.9 µM
O=C(CCN1C(=O)c2ccccc2C1=O)N1CCC(c2ccccc2)C1 (stereo not given) > 76.9 µM
CCCc1nnc(NC(=O)CN2CCOCC2)s1 > 76.9 µM
Cc1nn(-c2ccccc2)c2sc(C(=O)N3CCCCC3)cc12 > 76.9 µM
CCOc1ccccc1NC(=O)N1CCC(c2nc3ccc(C)cc3[nH]2)CC1
CCOC(=O)c1ccc(NC(=O)CC2C(=O)N(c3ccc(F)cc3)C(=O)N2CCCOC)cc1 (stereo not given) > 76.9 µM
O=C(NCc1ccccn1)C1CCCN(S(=O)(=O)c2ccccc2)C1 (stereo not given) > 76.9 µM
Cc1ccc2[nH]c(=O)c(CN(Cc3cccnc3)C(=O)c3ccncc3)cc2c1 > 76.9 µM
CC(=O)CC(C)(C)n1nnc(-c2ccccc2)n1 > 76.9 µM
CCOC(=O)CSc1nc2ccccc2n1CC(=O)NC(C)(C)C > 76.9 µM
CC1CCCC(C)N1C(=O)CSc1nnc(CSc2ncccn2)n1C (stereo not given) > 76.9 µM
c1cc2c(cc1-c1cnc3n1CCC3)OCCO2 > 76.9 µM
N#CCCN(CCC#N)C(=O)c1ccc(Cl)cc1 > 76.9 µM
COc1cccc(-c2cc(C(=O)Nc3cnn(Cc4ccc(F)cc4)c3)no2)c1 > 76.9 µM
Cn1cccc1C1(C(F)(F)F)NCCNC1=O (stereo not given) > 76.9 µM
CC1(C)Cc2ccccc2-c2nnc(-c3cccnc3)n21 > 76.9 µM
O=S(=O)(c1ccc(S(=O)(=O)N2CCN(C/C=C/c3ccccc3)CC2)cc1)N1CCCC1 > 76.9 µM
N#Cc1c(NC(=O)CSc2ncnc3sccc23)oc(-c2ccco2)c1-c1ccco1
COC(=O)Cc1nc2ccccc2[nH]1 > 76.9 µM
CCSc1nc2c(c(=O)n1Cc1ccccc1)SC(C)C2 (stereo not given) > 76.9 µM
CCCOc1ccc(C2C(=O)N(C3CCCCC3)CC(=O)N2CCCOCC)cc1OC (stereo not given) > 76.9 µM
Cn1nnc2cc(C(=O)N3CCSCC3)ccc21 > 76.9 µM
CCN1CCN(C(c2ccccc2)c2nnnn2CCc2ccc(OC)c(OC)c2)CC1 (stereo not given) > 76.9 µM
S=c1nc(C2CC2)[nH]c2ccccc12 > 76.9 µM
COc1ccccc1-c1nc(C#N)c(N2CCN(c3cccc(Cl)c3)CC2)o1 > 76.9 µM
Cc1cccc(N(C(=O)Cn2nnc3ccccc32)C(C(=O)NCc2ccco2)c2ccncc2)c1 (stereo not given) > 76.9 µM
Cn1c(=O)c(C(=O)CN2CCCc3ccccc32)c(N)n(Cc2ccccc2)c1=O > 76.9 µM
Cc1ccc(CNc2ncc(-c3ccc4c(c3)OCO4)n2C)cc1 > 76.9 µM
COC(=O)C1=C(C)N(CCC2=CCCCC2)C(=O)C1 > 76.9 µM
CC1CCCCN1C(=O)CSc1nc2cc3c(cc2c(=O)n1Cc1ccc2c(c1)OCO2)OCO3 (stereo not given)
COc1cccc(C2C=C(c3cccs3)Nc3ncnn32)c1OC (stereo not given) > 76.9 µM
O=C(O)C1CCCCC1C(=O)NCCCCc1ccccc1 (stereo not given) > 76.9 µM
CCOC(=O)COc1ccc(C(=O)c2ccccc2)c(O)c1 > 76.9 µM
N#CCC(=O)N1CCn2c1nc1ccccc12 > 76.9 µM
O=C(CN1C2=NCCCN2c2ccccc21)c1ccc2c(c1)OCO2 > 76.9 µM
COc1ccccc1NC(=O)C1CCCN(S(=O)(=O)c2cccc3nsnc23)C1 (stereo not given) > 76.9 µM
CCN1CCN(/C=N/c2nc(C)cs2)CC1 > 76.9 µM
COc1ccc(S(=O)(=O)NCCCCNS(=O)(=O)c2ccc(OC)cc2)cc1 > 76.9 µM
O=C(Nc1ccon1)c1sc2ccccc2c1Cl > 76.9 µM
COc1ccc(NC(=O)c2ccc(S(=O)(=O)N3CCOCC3)cc2)c(OC)c1 > 76.9 µM
O=C(c1cc(-c2cccs2)on1)N1CCN(c2ccc(F)cc2)CC1 > 76.9 µM
Cc1cnc(C(=O)Nc2ccc(C(=O)N(C)C3CCCCC3)cc2)cn1 > 76.9 µM
CC1CN(C(=O)c2cc3c(s2)CCC3)CC(C)O1 (stereo not given) > 76.9 µM
COc1ccc2oc(=O)c(C(=O)N3CCCc4ccccc43)cc2c1 > 76.9 µM
COC(=O)[C@H](CCSC)NC(=O)NCc1cccs1 > 76.9 µM
